This is an account of results in paper PMC5998136.

Amino acid sequences for entries named in this document (tags omitted). A change or cut given only in a name is not applied to a line headed by its entry. Chains listed by the source or under a name are the forms on record and can include a tag or linker. Residues count along the entry.
UniProt Q04207: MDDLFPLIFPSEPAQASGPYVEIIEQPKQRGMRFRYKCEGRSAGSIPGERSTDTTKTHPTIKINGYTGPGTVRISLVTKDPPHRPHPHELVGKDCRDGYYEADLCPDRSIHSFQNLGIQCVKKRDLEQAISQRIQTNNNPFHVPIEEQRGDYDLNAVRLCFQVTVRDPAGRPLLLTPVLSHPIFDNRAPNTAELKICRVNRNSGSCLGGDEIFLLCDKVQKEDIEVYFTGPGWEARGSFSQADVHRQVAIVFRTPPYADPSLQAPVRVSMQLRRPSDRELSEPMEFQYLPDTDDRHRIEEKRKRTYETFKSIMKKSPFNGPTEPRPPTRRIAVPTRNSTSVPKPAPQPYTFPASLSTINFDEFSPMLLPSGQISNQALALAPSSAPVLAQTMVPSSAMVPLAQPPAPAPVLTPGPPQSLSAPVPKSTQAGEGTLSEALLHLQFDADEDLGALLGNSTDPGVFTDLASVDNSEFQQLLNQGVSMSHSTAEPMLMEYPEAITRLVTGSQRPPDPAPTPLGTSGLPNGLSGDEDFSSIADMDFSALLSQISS
UniProt O54943: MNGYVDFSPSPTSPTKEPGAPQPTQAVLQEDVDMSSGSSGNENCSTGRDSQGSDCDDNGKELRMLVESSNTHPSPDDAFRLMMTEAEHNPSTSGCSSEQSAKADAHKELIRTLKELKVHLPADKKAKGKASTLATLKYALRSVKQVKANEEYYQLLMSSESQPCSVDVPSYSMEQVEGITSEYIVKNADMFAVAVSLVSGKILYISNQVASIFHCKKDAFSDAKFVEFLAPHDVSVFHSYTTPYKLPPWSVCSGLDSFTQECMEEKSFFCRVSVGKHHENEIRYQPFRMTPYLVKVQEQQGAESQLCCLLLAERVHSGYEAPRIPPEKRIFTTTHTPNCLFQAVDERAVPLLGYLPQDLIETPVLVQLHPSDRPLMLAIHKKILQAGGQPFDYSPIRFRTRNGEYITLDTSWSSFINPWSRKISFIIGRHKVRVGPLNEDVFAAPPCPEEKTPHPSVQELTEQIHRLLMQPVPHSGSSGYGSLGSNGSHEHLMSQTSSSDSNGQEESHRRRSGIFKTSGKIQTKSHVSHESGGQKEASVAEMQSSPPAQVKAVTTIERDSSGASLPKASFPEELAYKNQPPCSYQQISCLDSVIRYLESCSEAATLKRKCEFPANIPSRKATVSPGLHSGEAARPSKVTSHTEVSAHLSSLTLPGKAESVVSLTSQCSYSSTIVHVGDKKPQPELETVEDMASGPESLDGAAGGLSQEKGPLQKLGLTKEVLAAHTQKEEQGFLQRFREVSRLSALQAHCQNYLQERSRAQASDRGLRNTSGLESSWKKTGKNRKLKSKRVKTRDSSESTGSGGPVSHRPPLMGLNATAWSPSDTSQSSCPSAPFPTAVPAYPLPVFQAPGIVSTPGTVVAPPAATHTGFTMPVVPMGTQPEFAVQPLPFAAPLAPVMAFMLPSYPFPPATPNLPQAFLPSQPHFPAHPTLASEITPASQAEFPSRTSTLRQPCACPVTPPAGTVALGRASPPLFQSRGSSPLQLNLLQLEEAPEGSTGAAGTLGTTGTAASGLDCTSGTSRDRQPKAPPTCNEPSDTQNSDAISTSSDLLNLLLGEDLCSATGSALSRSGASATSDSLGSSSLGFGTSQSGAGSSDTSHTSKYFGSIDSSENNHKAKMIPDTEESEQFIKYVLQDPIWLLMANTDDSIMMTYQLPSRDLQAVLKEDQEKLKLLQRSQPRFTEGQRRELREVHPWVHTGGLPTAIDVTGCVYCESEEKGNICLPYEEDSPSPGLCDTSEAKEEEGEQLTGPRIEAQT
Mutated PER2 protein (lacking amino acid residues 348-434) (O54943, form named): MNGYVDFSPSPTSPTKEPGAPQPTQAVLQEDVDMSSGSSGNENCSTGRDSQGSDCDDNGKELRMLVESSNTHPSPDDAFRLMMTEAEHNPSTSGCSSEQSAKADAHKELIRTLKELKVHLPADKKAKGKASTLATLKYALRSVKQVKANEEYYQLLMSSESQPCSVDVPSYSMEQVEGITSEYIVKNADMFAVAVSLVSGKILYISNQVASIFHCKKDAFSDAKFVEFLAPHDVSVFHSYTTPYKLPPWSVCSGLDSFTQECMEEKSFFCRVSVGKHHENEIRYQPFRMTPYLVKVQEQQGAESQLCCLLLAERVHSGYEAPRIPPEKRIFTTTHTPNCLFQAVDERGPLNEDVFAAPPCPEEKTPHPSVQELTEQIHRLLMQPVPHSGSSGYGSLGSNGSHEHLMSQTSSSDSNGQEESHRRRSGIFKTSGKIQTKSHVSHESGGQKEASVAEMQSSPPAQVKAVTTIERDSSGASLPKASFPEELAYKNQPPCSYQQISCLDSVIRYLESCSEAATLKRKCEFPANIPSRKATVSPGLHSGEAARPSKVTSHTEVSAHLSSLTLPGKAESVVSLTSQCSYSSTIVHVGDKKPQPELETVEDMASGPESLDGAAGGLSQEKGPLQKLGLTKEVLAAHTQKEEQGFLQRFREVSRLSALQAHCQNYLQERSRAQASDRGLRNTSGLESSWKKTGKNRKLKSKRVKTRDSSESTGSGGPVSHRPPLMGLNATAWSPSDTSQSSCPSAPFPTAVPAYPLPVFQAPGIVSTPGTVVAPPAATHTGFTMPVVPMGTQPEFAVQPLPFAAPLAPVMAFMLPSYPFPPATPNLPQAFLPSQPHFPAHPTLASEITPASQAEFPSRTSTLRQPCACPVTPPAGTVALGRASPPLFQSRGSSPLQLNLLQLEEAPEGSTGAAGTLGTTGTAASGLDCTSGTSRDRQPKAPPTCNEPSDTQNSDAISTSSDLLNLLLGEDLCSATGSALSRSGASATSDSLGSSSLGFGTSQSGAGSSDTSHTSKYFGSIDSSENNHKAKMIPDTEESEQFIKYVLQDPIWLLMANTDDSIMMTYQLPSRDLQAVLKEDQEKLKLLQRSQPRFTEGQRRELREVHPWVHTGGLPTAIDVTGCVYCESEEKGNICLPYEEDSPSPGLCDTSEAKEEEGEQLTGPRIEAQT

For experiment [1], the target named is v-rel reticuloendotheliosis viral oncogene homolog A (p65) (mouse (endogenous in mouse liver)) (UniProt Q04207). Kind of experiment: co-IP; hepatic nuclear extracts prepared at ZT2 and ZT14 from wild-type and Per2m/m mice; IP with anti-p65 antibodies on protein A/G agarose (Crosslink immunoprecipitation kit), 4 °C overnight; blot for PER2 and p65.
In experiment [2] the target is PERIOD2 (mouse (endogenous in mouse liver)) (UniProt O54943). Kind of experiment: co-IP; hepatic nuclear fraction of wild-type mice, two times of day; IP with anti-PER2 antibodies (Supplementary Fig. 3).
In experiment [3] the target is T1, fatty acid transport protein-5 (mouse (endogenous in mouse liver)) (UniProt Q4LDG0).
T1 sequence: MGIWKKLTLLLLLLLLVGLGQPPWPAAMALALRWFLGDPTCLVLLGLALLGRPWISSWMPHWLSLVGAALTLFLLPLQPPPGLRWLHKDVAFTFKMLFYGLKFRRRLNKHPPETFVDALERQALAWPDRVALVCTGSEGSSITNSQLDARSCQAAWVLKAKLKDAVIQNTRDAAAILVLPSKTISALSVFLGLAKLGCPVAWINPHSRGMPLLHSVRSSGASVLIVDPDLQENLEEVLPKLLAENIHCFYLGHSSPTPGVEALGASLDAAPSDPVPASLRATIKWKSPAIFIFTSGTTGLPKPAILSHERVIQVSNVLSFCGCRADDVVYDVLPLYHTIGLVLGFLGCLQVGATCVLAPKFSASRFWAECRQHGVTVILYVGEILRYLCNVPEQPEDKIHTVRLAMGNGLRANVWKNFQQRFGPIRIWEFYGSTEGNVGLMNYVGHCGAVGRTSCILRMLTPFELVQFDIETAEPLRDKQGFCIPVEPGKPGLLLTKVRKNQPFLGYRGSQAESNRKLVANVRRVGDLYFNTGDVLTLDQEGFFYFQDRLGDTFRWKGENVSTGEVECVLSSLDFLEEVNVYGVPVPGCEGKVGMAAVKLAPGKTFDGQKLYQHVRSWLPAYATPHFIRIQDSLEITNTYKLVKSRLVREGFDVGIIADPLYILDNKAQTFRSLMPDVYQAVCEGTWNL
Kind of experiment: co-IP; hepatic membrane fractions; IP with anti-EZRIN and anti-FATP5 antibodies (Supplementary Fig. 5).

The target of experiment [4] is T2, Na+/H+ exchanger regulatory factor-1 (mouse (endogenous in mouse liver)) (UniProt P70441).
T2 sequence: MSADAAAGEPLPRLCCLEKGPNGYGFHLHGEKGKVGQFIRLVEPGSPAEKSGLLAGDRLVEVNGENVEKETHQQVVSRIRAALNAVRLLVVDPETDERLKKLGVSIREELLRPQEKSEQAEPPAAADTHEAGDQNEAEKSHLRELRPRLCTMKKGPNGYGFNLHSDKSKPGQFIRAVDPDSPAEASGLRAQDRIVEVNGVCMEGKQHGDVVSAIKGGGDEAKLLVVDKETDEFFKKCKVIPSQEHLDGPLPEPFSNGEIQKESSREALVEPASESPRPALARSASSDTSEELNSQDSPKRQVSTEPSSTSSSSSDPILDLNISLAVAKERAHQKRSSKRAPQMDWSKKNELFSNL
Description: co-IP; hepatic membrane fractions of wild-type mice at two times of day; IP with anti-NHERF1 antibodies on protein A/G agarose, 4 °C overnight; western blot for FATP5 and EZRIN. (In general: In western blotting, separated proteins are transferred to a membrane and probed.)

These are yes or no findings as the source states them, for the method shown. In cells and extracts the contact can be indirect. Some entries that bind do so weakly or less than the wild type.

With “Mutated PER2 protein (lacking amino acid residues 348-434) (from UniProt O54943 1-1257)”, the binding entry in experiment [1] is “no binding”.

For the molecule PERIOD2 (from UniProt O54943 1-1257), the binding result in experiment [1] is “binds”.

Take “v-rel reticuloendotheliosis viral oncogene homolog A (p65) (from UniProt Q04207 1-549)”: in experiment [2], the binding entry is recorded as “binds”.

B1: Na+/H+ exchanger regulatory factor-1 (protein, UniProt P70441-1 1-355)
chain: T2 sequence
In the case of B1, the binding entry in experiment [3] is given as “binds”.

B2: fatty acid transport protein-5 (protein, UniProt Q4LDG0 1-689)
chain: T1 sequence
For B2, in experiment [4], the binding result is reported as “binds”.
